Assay results published in patent US20250177530A1, “MOLECULES THAT BIND TO ENPP1 POLYPEPTIDES” (UNIVERSITY OF PITTSBURGH - OF THE COMMONWEALTH SYSTEM OF …, priority 2022, published 2025).

T1: recombinant ENPP1 (Homo sapiens, UniProt P22413)
T1 construct: designed to express the ENPP1 extracellular domain fused with a His6-FLAG tag; His6-FLAG; made in house; host or cells: Expi293 cells (transient, pIW-Zeocin vector), purified on Nickel resin
T1 sequence (P22413 98-925 limits assumed): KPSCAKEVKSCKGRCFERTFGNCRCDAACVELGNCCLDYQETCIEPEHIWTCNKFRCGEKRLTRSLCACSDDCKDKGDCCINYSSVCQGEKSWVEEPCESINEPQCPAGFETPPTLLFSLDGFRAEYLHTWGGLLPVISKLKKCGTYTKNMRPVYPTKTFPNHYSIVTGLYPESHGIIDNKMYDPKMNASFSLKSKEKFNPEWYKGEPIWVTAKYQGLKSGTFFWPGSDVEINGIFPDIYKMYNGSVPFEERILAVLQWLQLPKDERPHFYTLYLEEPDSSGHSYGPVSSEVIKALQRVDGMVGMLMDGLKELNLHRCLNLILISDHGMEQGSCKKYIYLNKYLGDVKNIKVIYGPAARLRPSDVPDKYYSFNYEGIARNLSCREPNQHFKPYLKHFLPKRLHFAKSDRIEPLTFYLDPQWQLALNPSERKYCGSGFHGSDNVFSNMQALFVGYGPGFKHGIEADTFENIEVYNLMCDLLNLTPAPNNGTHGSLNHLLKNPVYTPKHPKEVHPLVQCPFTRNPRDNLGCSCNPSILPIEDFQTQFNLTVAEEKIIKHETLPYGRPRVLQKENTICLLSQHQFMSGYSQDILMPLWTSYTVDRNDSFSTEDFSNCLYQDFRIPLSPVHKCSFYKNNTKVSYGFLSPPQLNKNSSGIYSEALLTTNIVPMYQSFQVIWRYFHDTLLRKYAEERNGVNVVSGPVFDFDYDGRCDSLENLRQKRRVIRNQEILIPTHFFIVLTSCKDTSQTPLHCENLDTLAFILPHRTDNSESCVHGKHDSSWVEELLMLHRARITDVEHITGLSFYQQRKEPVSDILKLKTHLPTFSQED


Tests used:
recombinant ENPP1 = biological target: T1, recombinant ENPP1; assay: BLItz biolayer interferometry affinity/avidity; type: binding; settings: for Kon / koff: curve fitting
Description: The affinity and avidity of the anti-hENPP1 antibody were detected by biolayer interferometry BLItz (ForteBio, Menlo Park, CA, USA). Briefly, DPBS was used to establish a baseline for 30 seconds, and streptavidin biosensor (ForteBio) was coated with 16.7 μg/mL recombinant ENPP1-Biotin for 2 minutes. Different doses of IgG1 and Fab were used for association and monitored for 2 minutes to measure the avidity and affinity. Antigen-coated biosensors with PBS served as a reference control. The dissociation was monitored in DPBS for 4 minutes.

BSA = BSA (Bos taurus, UniProt P02769); assay: ELISA binding to BSA (specificity)
Description: The binding and specificity of Fab, scFv, and IgG1 to ENPP1 were analyzed by ELISA. Briefly, ENPP1-His protein was coated at 50 ng/well at 4° C. overnight and blocked with 5% milk for 2 hours at room temperature. After three times washing with PBST, they were incubated with 3-fold serially diluted Fab, scFv, or IgG1 for 1 hour at 37° C. For Fab and scFv detection via the FLAG tag present at the C-terminus, further incubation was performed with anti-FLAG M2-peroxidase (HRP) antibody (A8592, Sigma-Aldrich, St. Louis, MO, USA) for another 1 hour. For the IgG1, HRP-conjugated goat anti-human IgG1 Fc (Sigma-Aldrich, St. Louis, MO, USA) was used for detection.

[1] = Size-exclusion chromatography (SEC) aggregation evaluation; type: physicochemical; settings: Superdex 200 Increase 10/300 GL, DPBS
Description: The purity and structure of the antibodies were analyzed by Superdex 200 Increase 10/300 GL chromatography (GE Healthcare, Chicago, IL, USA). Briefly, the proteins ferritin, aldolase, conalbumin, ovalbumin, carbonic anhydrase, and ribonuclease were used for calibration. A 500 μL sample mix containing the above proteins was loaded into the column and separated by the ÄKTA explorer machine (GE Healthcare, Chicago, IL, USA). For the antibody analysis, 100 μL of filtered antibodies (2 mg/mL) in 1×DPBS (Dulbecco's phosphate-buffered saline, Gibco, Waltham, MA, USA) was analyzed. Antibodies were eluted by DPBS buffer at a flow rate of 0.5 mL/minute.

293T-ENPP1 cells [2] = assay: IgG1 internalization by flow cytometry; type: cell-based; settings: pHrodo Deep Red labeled IgG1, 37° C., 2 hours
Description: FIGS. 7A-7B. Internalization of IgG1 by ENPP1 positive and negative cell lines.
To access the cell cytotoxicity of anti-ENPP1 IgG1-MMAE ADC, the IgG1 internalization between 293T cells and 293T-ENPP1 cells was investigated by flow cytometry. […] Next, the ADC killing effects with HepG2 cancer cells, which have a lower expression level of ENPP1, were tested. […] When compared with the 293T cell line, the HepG2 was more sensitive to MMAE.

293T cells = assay: Flow cytometry cell surface binding; type: cell-based; settings: 100 nM, ENPP1 negative 293T cells
Description: (§1) To detect the cells surface expression levels of ENPP1 protein, the cells were stained with anti-ENPP1/PC1 antibody (Abcam, Cambridge, UK) for 30 minutes at 4° C. and then stained with Alexa Fluor 488-conjugated goat anti-rabbit IgG H&L (Abcam) for 30 minutes at 4° C. To determine the cell surface binding of the isolated antibodies, cells were incubated with hlgG1 17, hlgG1 3G12, scFv 17, or scFv 3G12 for 1 hour at 4° C. and then stained with PE-conjugated goat anti-human IgG (Sigma-Aldrich) or APC-conjugated anti-FLAG (Miltenyi Biotec) for 30 minutes at 4° C. For anti-ENPP1-CAR expression on T cells, CD4^+ T and CD8^+ T cells were gated by using PerCP conjugated anti-human CD3 antibody (Biolegend, San Diego, CA, USA) and followed by APC conjugated anti-human CD4 antibody (Biolegend) and FITC conjugated anti-human CD8 antibody (Biolegend) separately, and CAR expression was examined by using biotinylated ENPP1 followed by PE Streptavidin (Biolegend).

293T-ENPP1 cells [3] = assay: Flow cytometry cell surface binding; type: cell-based; settings: 100 nM, ENPP1 positive 293T-ENPP1 cells
Description: as §1

HepG2 cells = assay: Flow cytometry cell surface binding; type: cell-based; settings: 100 nM, HepG2 cells (low ENPP1 expression)
Description: as §1

293T-ENPP1 cells [4] = assay: ADCC reporter bioassay; type: cell-based; settings: serial diluted IgG1, 293T-ENPP1 target cells
Description: The cell-killing activity of anti-ENPP1 CAR^+ T cells and BiTEs were measured by LDH-Glo cytotoxicity assay kit (Promega, Madison, WI, USA). For the cell-killing activity of anti-ENPP1 CAR^+ T cells, control T cells or CAR^+ T cells as effector cells were incubated with 293T, 293T-ENPP1, and HepG2 target cells (5×10^3 cells/well in 96-well plate) separately at indicated E:T ratio for 24 hours at 37° C. For the cell-killing activity of BiTEs, target cells (1×10^4 cells/well) were mixed with serially diluted BiTEs in 50 μL of growth medium, and […] activated T cells were added at the ET ratio 10:1 and cultured for 24 hours at 37° C. in 5% CO2 humidified atmosphere. Controls for the calculation of percentage cytotoxicity were performed according to the manufacturer's instructions. The calculation of relative % cytotoxicity as follows: relative % cytotoxicity=100×(Experimental LDH release-medium background)/(target and effector maximum LDH release control-medium background). For the cell-killing activity of ADC, 293T, 293T-ENPP1, and HepG2 cells were seeded at 2000 cells/well in 96-well white plate and incubated overnight at 37° C. in 5% CO2. […] The calculation of % Relative cell viability was as follows: % Relative cell viability=100×(Experimental luminescence values-medium Background)/(Control luminescence values-medium Background). […]

Sequence of BSA (P02769 25-607): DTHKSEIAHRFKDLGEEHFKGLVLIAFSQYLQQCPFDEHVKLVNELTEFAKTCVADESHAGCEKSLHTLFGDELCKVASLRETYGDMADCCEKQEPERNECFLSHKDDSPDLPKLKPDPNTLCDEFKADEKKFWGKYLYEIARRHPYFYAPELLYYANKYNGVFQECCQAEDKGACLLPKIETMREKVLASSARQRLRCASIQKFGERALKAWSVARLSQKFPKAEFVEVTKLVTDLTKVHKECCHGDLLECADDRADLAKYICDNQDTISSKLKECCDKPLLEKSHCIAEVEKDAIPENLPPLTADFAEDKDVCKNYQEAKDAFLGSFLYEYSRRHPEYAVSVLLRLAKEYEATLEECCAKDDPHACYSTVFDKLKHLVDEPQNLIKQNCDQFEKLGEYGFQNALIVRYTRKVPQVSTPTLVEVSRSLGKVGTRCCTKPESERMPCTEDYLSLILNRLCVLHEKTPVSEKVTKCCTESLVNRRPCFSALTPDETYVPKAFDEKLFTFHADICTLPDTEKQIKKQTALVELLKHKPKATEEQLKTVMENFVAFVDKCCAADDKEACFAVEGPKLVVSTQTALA

| Molecule | Kon (recombinant ENPP1) | koff (recombinant ENPP1) | binding to BSA (BSA) | form / high molecular weight species measured by SEC [1] | internalization (293T-ENPP1 cells [2]) | cell surface binding of IgG1 (293T cells) | cell surface binding of IgG1 (293T-ENPP1 cells [3]) | cell surface binding of IgG1 (HepG2 cells) | ADCC activity (293T-ENPP1 cells [4]) | Kd (recombinant ENPP1; ENPP1-Biotin on streptavidin biosensor, read-out: equilibrium dissociation constant (KD)) |
| --- | --- | --- | --- | --- | --- | --- | --- | --- | --- | --- |
| Fab 17: Anti-ENPP1 human Fab; light chain SEQ ID NO:286, heavy chain SEQ ID NO:287 (antibody) heavy: QVQLVESGGGLVKPGGSLRLSCAASGFTFSDYYMSWIRQAPGKGLEWVSYISSSGSTIYYADSVKGRFTISRDNAKNSLYLQMNSLRAEDTAVYYCAREVYYYDSSGYYTYYFDYWGQGTLVTVSSASTKGPSVFPLAPSSKSTSGGTAALGCLVKDYFPEPVTVSWNSGALTSGVHTFPAVLQSSGLYSLSSVVTVPSSSLGTQTYICNVNHKPSNTKVDKKVEPKSCDKT light: DIQMTQSPSSLSASVGDRVTITCRASQSISSYLNWYQQKPGKAPKLLIYAASSLQSGVPSRFSGSGSGTDFTLTISSLQPEDAATYYCQQYDTFPLTFGGGTKVEIKRTVAAPSVFIFPPSDEQLKSGTASVVCLLNNFYPREAKVQWKVDNALQSGNSQESVTEQDSKDSTYSLSSTLTLSKADYEKHKVYACEVTHQGLSSPVTKSFNRGEC | 72000 M⁻¹ s⁻¹ | 0.0044 s⁻¹ | did not bind to BSA | – | – | – | – | – | – | – |
| Fab 3G12: Anti-ENPP1 human Fab; light chain SEQ ID NO:288, heavy chain SEQ ID NO:287 (antibody) heavy: QVQLVESGGGLVKPGGSLRLSCAASGFTFSDYYMSWIRQAPGKGLEWVSYISSSGSTIYYADSVKGRFTISRDNAKNSLYLQMNSLRAEDTAVYYCAREVYYYDSSGYYTYYFDYWGQGTLVTVSSASTKGPSVFPLAPSSKSTSGGTAALGCLVKDYFPEPVTVSWNSGALTSGVHTFPAVLQSSGLYSLSSVVTVPSSSLGTQTYICNVNHKPSNTKVDKKVEPKSCDKT light: DIQMTQSPSSLSASVGDRVTITCRASQSISSYLNWYQQKPGKAPKLLIYAASSLQSGVPSRFSGSGSGTDFTLTISSLQPEDVAVYYCQQYYTSRITFGQGTKLEIKRTVAAPSVFIFPPSDEQLKSGTASVVCLLNNFYPREAKVQWKVDNALQSGNSQESVTEQDSKDSTYSLSSTLTLSKADYEKHKVYACEVTHQGLSSPVTKSFNRGEC | 52000 M⁻¹ s⁻¹ | 0.0018 s⁻¹ | did not bind to BSA | – | – | – | – | – | – | – |
| IgG1 17: Fab 17 converted to bivalent antibody by fusion with human IgG1 Fc; HC SEQ ID NO:289, LC SEQ ID NO:286 (antibody) heavy: QVQLVESGGGLVKPGGSLRLSCAASGFTFSDYYMSWIRQAPGKGLEWVSYISSSGSTIYYADSVKGRFTISRDNAKNSLYLQMNSLRAEDTAVYYCAREVYYYDSSGYYTYYFDYWGQGTLVTVSS[human IgG1 constant region not spelt out] light: DIQMTQSPSSLSASVGDRVTITCRASQSISSYLNWYQQKPGKAPKLLIYAASSLQSGVPSRFSGSGSGTDFTLTISSLQPEDAATYYCQQYDTFPLTFGGGTKVEIKRTVAAPSVFIFPPSDEQLKSGTASVVCLLNNFYPREAKVQWKVDNALQSGNSQESVTEQDSKDSTYSLSSTLTLSKADYEKHKVYACEVTHQGLSSPVTKSFNRGEC | – | – | – | monomer and had no high molecular weight species | efficiently and highly internalized | no binding effects | specific binding | 11% | no effects on inducing ADCC | – |
| IgG1 3G12: Fab 3G12 converted to bivalent antibody by fusion with human IgG1 Fc; HC SEQ ID NO:289, LC SEQ ID NO:288 (antibody) heavy: QVQLVESGGGLVKPGGSLRLSCAASGFTFSDYYMSWIRQAPGKGLEWVSYISSSGSTIYYADSVKGRFTISRDNAKNSLYLQMNSLRAEDTAVYYCAREVYYYDSSGYYTYYFDYWGQGTLVTVSS[human IgG1 constant region not spelt out] light: DIQMTQSPSSLSASVGDRVTITCRASQSISSYLNWYQQKPGKAPKLLIYAASSLQSGVPSRFSGSGSGTDFTLTISSLQPEDVAVYYCQQYYTSRITFGQGTKLEIKRTVAAPSVFIFPPSDEQLKSGTASVVCLLNNFYPREAKVQWKVDNALQSGNSQESVTEQDSKDSTYSLSSTLTLSKADYEKHKVYACEVTHQGLSSPVTKSFNRGEC | – | – | – | monomer and had no high molecular weight species | efficiently and highly internalized | no binding effects | specific binding | 12% | no effects on inducing ADCC | 4.16 nM |
